The list shows a part of the results.
Legend:
Test in all cases: glycan array binding signal (z-score within array); higher = stronger binding
Conditions in all cases: glycan notation: IUPAC condensed, linker removed
[1] = target: GlcNAc(b1-2)Gal(b1-3)GalNAc
How it was run: (§1)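 Arrays were curated from the Consortium for Functional Glycomics database, 3228 in total, and kept only where the protein sequence was available. Binding is expressed as a within-array Z-score. This score was averaged across arrays of the same protein sequence at different concentrations or buffers and across linkers, and negative values can be read as non-binding.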

[2] = target: GlcNAc(b1-2)Man(a1-3)[GlcNAc(b1-2)Man(a1-6)]Man(b1-4)GlcNAc(b1-4)GlcNAc
How it was run: as §1

[3] = target: GlcNAc(b1-2)Man(a1-3)[GlcNAc(b1-2)Man(a1-6)]Man(b1-4)GlcNAc(b1-4)[Fuc(a1-6)]GlcNAc
How it was run: as §1

[4] = target: GlcNAc(b1-2)Man(a1-3)[GlcNAc(b1-4)][GlcNAc(b1-2)Man(a1-6)]Man(b1-4)GlcNAc(b1-4)GlcNAc
How it was run: as §1

[5] = target: GlcNAc(b1-2)Man(a1-3)[GlcNAc(b1-4)][GlcNAc(b1-2)Man(a1-6)]Man(b1-4)GlcNAc(b1-4)[Fuc(a1-6)]GlcNAc
How it was run: as §1

[6] = target: GlcNAc(b1-2)[GlcNAc(b1-4)]Man(a1-3)[GlcNAc(b1-2)Man(a1-6)]Man(b1-4)GlcNAc(b1-4)GlcNAc
How it was run: as §1

[7] = target: GlcNAc(b1-2)[GlcNAc(b1-4)]Man(a1-3)[GlcNAc(b1-4)][GlcNAc(b1-2)Man(a1-6)]Man(b1-4)GlcNAc(b1-4)GlcNAc
How it was run: as §1

[8] = target: GlcNAc(b1-2)[GlcNAc(b1-4)]Man(a1-3)[GlcNAc(b1-4)][GlcNAc(b1-2)[GlcNAc(b1-6)]Man(a1-6)]Man(b1-4)GlcNAc(b1-4)GlcNAc
How it was run: as §1

[9] = target: GlcNAc(b1-2)[GlcNAc(b1-4)]Man(a1-3)[GlcNAc(b1-4)][GlcNAc(b1-2)[GlcNAc(b1-6)]Man(a1-6)]Man(b1-4)GlcNAc(b1-4)[Fuc(a1-6)]GlcNAc
How it was run: as §1

[10] = target: GlcNAc(b1-2)[GlcNAc(b1-6)]Man(a1-6)[GlcNAc(b1-2)Man(a1-3)]Man(b1-4)GlcNAc(b1-4)GlcNAc
How it was run: as §1

[11] = target: GlcNAc(b1-2)[GlcNAc(b1-6)]Man(a1-6)[GlcNAc(b1-2)Man(a1-3)]Man(b1-4)GlcNAc(b1-4)[Fuc(a1-6)]GlcNAc
How it was run: as §1

[12] = target: GlcNAc(b1-2)[GlcNAc(b1-6)]Man(a1-6)[GlcNAc(b1-4)][GlcNAc(b1-2)Man(a1-3)]Man(b1-4)GlcNAc(b1-4)GlcNAc
How it was run: as §1

[13] = target: GlcNAc(b1-3)Fuc
How it was run: as §1

[14] = target: GlcNAc(b1-3)Gal
How it was run: as §1

[15] = target: GlcNAc(b1-3)Gal(b1-3)GalNAc
How it was run: as §1

[16] = target: GlcNAc(b1-3)Gal(b1-4)Glc
How it was run: as §1

[17] = target: GlcNAc(b1-3)Gal(b1-4)GlcNAc
How it was run: as §1

[18] = target: GlcNAc(b1-3)Gal(b1-4)GlcNAc(b1-2)Man(a1-3)[GlcNAc(b1-3)Gal(b1-4)GlcNAc(b1-2)Man(a1-6)]Man(b1-4)GlcNAc(b1-4)GlcNAc
How it was run: as §1

[19] = target: GlcNAc(b1-3)Gal(b1-4)GlcNAc(b1-2)Man(a1-3)[GlcNAc(b1-3)Gal(b1-4)GlcNAc(b1-2)Man(a1-6)]Man(b1-4)GlcNAc(b1-4)[Fuc(a1-6)]GlcNAc
How it was run: as §1

[20] = target: GlcNAc(b1-3)Gal(b1-4)GlcNAc(b1-2)[GlcNAc(b1-3)Gal(b1-4)GlcNAc(b1-6)]Man(a1-6)[GlcNAc(b1-3)Gal(b1-4)GlcNAc(b1-2)Man(a1-3)]Man(b1-4)GlcNAc(b1-4)GlcNAc
How it was run: as §1

[21] = target: GlcNAc(b1-3)Gal(b1-4)GlcNAc(b1-3)Gal(b1-4)GlcNAc
How it was run: as §1

[22] = target: GlcNAc(b1-3)Gal(b1-4)GlcNAc(b1-3)Gal(b1-4)GlcNAc(b1-2)Man(a1-3)[GlcNAc(b1-3)Gal(b1-4)GlcNAc(b1-3)Gal(b1-4)GlcNAc(b1-2)Man(a1-6)]Man(b1-4)GlcNAc(b1-4)GlcNAc
How it was run: as §1

[23] = target: GlcNAc(b1-3)Gal(b1-4)GlcNAc(b1-3)Gal(b1-4)GlcNAc(b1-2)Man(a1-3)[GlcNAc(b1-3)Gal(b1-4)GlcNAc(b1-3)Gal(b1-4)GlcNAc(b1-2)Man(a1-6)]Man(b1-4)GlcNAc(b1-4)[Fuc(a1-6)]GlcNAc
How it was run: as §1

[24] = target: GlcNAc(b1-3)Gal(b1-4)GlcNAc(b1-3)Gal(b1-4)GlcNAc(b1-2)[GlcNAc(b1-3)Gal(b1-4)GlcNAc(b1-3)Gal(b1-4)GlcNAc(b1-6)]Man(a1-6)[GlcNAc(b1-3)Gal(b1-4)GlcNAc(b1-3)Gal(b1-4)GlcNAc(b1-2)Man(a1-3)]Man(b1-4)GlcNAc(b1-4)[Fuc(a1-6)]GlcNAc
How it was run: as §1

[25] = target: GlcNAc(b1-3)Gal(b1-4)GlcNAc(b1-3)Gal(b1-4)GlcNAc(b1-3)Gal(b1-4)GlcNAc(b1-2)Man(a1-3)[GlcNAc(b1-3)Gal(b1-4)GlcNAc(b1-3)Gal(b1-4)GlcNAc(b1-3)Gal(b1-4)GlcNAc(b1-2)Man(a1-6)]Man(b1-4)GlcNAc(b1-4)GlcNAc
How it was run: as §1

[26] = target: GlcNAc(b1-3)Gal(b1-4)GlcNAc(b1-3)Gal(b1-4)GlcNAc(b1-3)Gal(b1-4)GlcNAc(b1-2)Man(a1-3)[GlcNAc(b1-3)Gal(b1-4)GlcNAc(b1-3)Gal(b1-4)GlcNAc(b1-3)Gal(b1-4)GlcNAc(b1-2)Man(a1-6)]Man(b1-4)GlcNAc(b1-4)[Fuc(a1-6)]GlcNAc
How it was run: as §1

[27] = target: GlcNAc(b1-3)Gal(b1-4)GlcNAc(b1-3)Gal(b1-4)GlcNAc(b1-3)Gal(b1-4)GlcNAc(b1-2)[GlcNAc(b1-3)Gal(b1-4)GlcNAc(b1-3)Gal(b1-4)GlcNAc(b1-3)Gal(b1-4)GlcNAc(b1-6)]Man(a1-6)[GlcNAc(b1-3)Gal(b1-4)GlcNAc(b1-3)Gal(b1-4)GlcNAc(b1-3)Gal(b1-4)GlcNAc(b1-2)Man(a1-3)]Man(b1-4)GlcNAc(b1-4)[Fuc(a1-6)]GlcNAc
How it was run: as §1

[28] = target: GlcNAc(b1-3)Gal(b1-4)GlcNAc(b1-3)Gal(b1-4)GlcNAc(b1-3)Gal(b1-4)GlcNAc(b1-3)Gal(b1-4)GlcNAc(b1-2)Man(a1-3)[GlcNAc(b1-3)Gal(b1-4)GlcNAc(b1-3)Gal(b1-4)GlcNAc(b1-3)Gal(b1-4)GlcNAc(b1-3)Gal(b1-4)GlcNAc(b1-2)Man(a1-6)]Man(b1-4)GlcNAc(b1-4)GlcNAc
How it was run: as §1

[29] = target: GlcNAc(b1-3)Gal(b1-4)GlcNAc(b1-3)Gal(b1-4)GlcNAc(b1-3)Gal(b1-4)GlcNAc(b1-3)Gal(b1-4)GlcNAc(b1-2)Man(a1-3)[GlcNAc(b1-3)Gal(b1-4)GlcNAc(b1-3)Gal(b1-4)GlcNAc(b1-3)Gal(b1-4)GlcNAc(b1-3)Gal(b1-4)GlcNAc(b1-2)Man(a1-6)]Man(b1-4)GlcNAc(b1-4)[Fuc(a1-6)]GlcNAc
How it was run: as §1

[30] = target: GlcNAc(b1-3)Gal(b1-4)GlcNAc(b1-3)Gal(b1-4)GlcNAc(b1-3)Gal(b1-4)GlcNAc(b1-3)Gal(b1-4)GlcNAc(b1-2)[GlcNAc(b1-3)Gal(b1-4)GlcNAc(b1-3)Gal(b1-4)GlcNAc(b1-3)Gal(b1-4)GlcNAc(b1-3)Gal(b1-4)GlcNAc(b1-6)]Man(a1-6)[GlcNAc(b1-3)Gal(b1-4)GlcNAc(b1-3)Gal(b1-4)GlcNAc(b1-3)Gal(b1-4)GlcNAc(b1-3)Gal(b1-4)GlcNAc(b1-2)Man(a1-3)]Man(b1-4)GlcNAc(b1-4)[Fuc(a1-6)]GlcNAc
How it was run: as §1

B1: Epa10 (protein)
chain: MNEKIFRYLTLLFLFELARSLPVEDKLNIKKVFEKRAVDFTPFAHYPRPEGCSSPPNSVSVGLHMNLYNYPYLYVKPSTKGMFTNDTNSDADGETDGDSAGGIEGRAGQCWNPEYQDPNFPRFGYKQYGEFGASDNVNGDISWDHNEFTEGCKPVLAALPPGYNYPDEITFSNFTMVLSGYFKPKTSGVYKFELKADDFILFNFGAKNAFECCNREESIDNFGPYVAYAMWPNQADQELEVYLFEDSYYPLRLFYNNRDYHSKFKIGFYPPGQTTITFDFDGYLFMLDDTGNECRDSIRYRTVCDDKVVDDTTYSTRYSTSMVPGGGSDVITIYYIRMKCEEEDCLGQWDPINNVCYSPDDCADDGGYWNGQMCDQSCKLEGGIVNPDTGDCDKSCIESGGFLDENGNCDTTCRDDGGMLVEGQCDYQCKEAGGILVGDHCDTTCVDSGGKLNEDGTCDHSCRDQGGQLDENGECDTSCKDSGGMLIEGECDTSCKDEGGQLDDNNECINHCKDQGGIIDENGNCDTSCKDSGGKLDESGACDTSCRDDGGIIDENGNCNTTCRDDGGIIVGDHCDTSCRDAGGILIEDHCDTTCRDSGGKLNEDGTCDHSCRDQGGQLDENGKCDYSCKNGGGKLDEDGNCDMSCKENGGKLDENGDCDLSCKEDGGKLDGNGDCDYSCKEEGGVIDESGNCNTTCKDSGGQIIDGECNYGCIEVGGVVIDGECDTSCIDSGGILDGDGNCDRSCIESGGVLEDGACNTTCRDSGGQLNVDGTCDTSCRDDGGMLVEGQCDYQCKEAGGILEDGECVFPPTSSSTSETSSTTDQSSLQSDDSSMESSSTPMDSSTIESSSSEIITSESESESVPIASSSSEVMTSESESESIPILTSSSEIPIASSSSEIPVASSSSEIIIPESESESVPVASSSSEIPIASSSSEIPVASSSSEIPVASSSSEIIIPESESESIPIESTSSEAVSSRSESDSSYPTPTPTTTTITTWPNPIQPTTSNSSPIVSSSTETPGIAESSSRISDLESSRRTSILGDDRTRTRTTITSTITEDGQIITITTTVTGFVPEPTGETEGNGSDDENPENPIENNTDENEFLDPEFTDDIPDDPAGPEDNGNGPVNPEQGNDNDPVNLEDSGNNGAVNPEQAPVNDEDNGGNDPVNPEQDNNNGPANPGQDSTNGSGNSDQIDNNPPTPEENAGDGNSNGNDPADPSRRTSILGDERTRASPGGTSQPTGANGNVNGNSPGANVNGGGTGNSNNNNNNNNNNNNGNAPNGGDGSNGDANQGPSRRTSLLGDERTRAGQAAPTGGSSPDNGIAGDTSNNGGAIVSQQVDDGGAGSPRRTSILGDVRSRTTLNGEVLNFEGSGVRRAVAGNLALPLMMVGLVFNL
Which “glycan array binding signal (z-score)” value [1] does the source give for B1 here?
Its value is -0.256.

What about the “glycan array binding signal (z-score)” value [2] of the same binder?
The value was -0.259.

What about the “glycan array binding signal (z-score)” value [3] of the same binder?
Its value is -0.266.

What about the “glycan array binding signal (z-score)” value [4] of the same binder?
The value was -0.198.

What about the “glycan array binding signal (z-score)” value [5] of the same binder?
Its value is -0.218.

And the “glycan array binding signal (z-score)” value [6]?
Its value is -0.276.

What about the “glycan array binding signal (z-score)” value [7] of the same binder?
Its value is -0.188.

What about the “glycan array binding signal (z-score)” value [8] of the same binder?
The value was -0.237.

And the “glycan array binding signal (z-score)” value [9]?
Its value is -0.299.

What about the “glycan array binding signal (z-score)” value [10] of the same binder?
Its value is -0.239.

And the “glycan array binding signal (z-score)” value [11]?
The value was -0.215.

And the “glycan array binding signal (z-score)” value [12]?
The value was -0.259.

What about the “glycan array binding signal (z-score)” value [13] of the same binder?
The value was -0.26.

What about the “glycan array binding signal (z-score)” value [14] of the same binder?
The value was -0.237.

And the “glycan array binding signal (z-score)” value [15]?
The value was -0.197.

And the “glycan array binding signal (z-score)” value [16]?
Its value is -0.254.

What about the “glycan array binding signal (z-score)” value [17] of the same binder?
Its value is -0.268.

And the “glycan array binding signal (z-score)” value [18]?
Its value is -0.196.

And the “glycan array binding signal (z-score)” value [19]?
Its value is -0.206.

What about the “glycan array binding signal (z-score)” value [20] of the same binder?
Its value is -0.125.

And the “glycan array binding signal (z-score)” value [21]?
Its value is -0.213.

What about the “glycan array binding signal (z-score)” value [22] of the same binder?
Its value is -0.076.

And the “glycan array binding signal (z-score)” value [23]?
The value was -0.129.

And the “glycan array binding signal (z-score)” value [24]?
The value was -0.132.

And the “glycan array binding signal (z-score)” value [25]?
The value was -0.283.

What about the “glycan array binding signal (z-score)” value [26] of the same binder?
The value was 0.011.

What about the “glycan array binding signal (z-score)” value [27] of the same binder?
The value was -0.103.

And the “glycan array binding signal (z-score)” value [28]?
The value was -0.22.

And the “glycan array binding signal (z-score)” value [29]?
The value was -0.145.

And the “glycan array binding signal (z-score)” value [30]?
The value was -0.075.
